# In a collection of fitness landscapes (doi:10.1038/s41467-024-54723-y):
# In all, about 18,000 sequences were measured (“TetR repression strength (sort-seq, GFP reporter)”: median about 0.23, highest 2% from about 0.68 on). This is one part of the list.
# Biological target: TetR (class B, Tn10) (UniProt P04483)
# Assay: TetR repression strength (sort-seq, GFP reporter) (relative to tetO2 = 1); higher = stronger repression
# Details: E. coli
# Outline: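 Repression strength was calculated by subtracting the read-weighted mean bin from the top bin index plus one and dividing by the unaltered operator's value. The plasmid library was low-copy in E. coli SIG10-MAX, with eight randomized operator positions between a constitutive promoter and sfGFP and constitutive TetR. Cultures grew 5 h at 37 °C in LB containing 50 µg/mL chloramphenicol before 10^6 cells were sorted by FACS into 13 fluorescence bins, each sequenced on Illumina. Three independent transformations were averaged for members having ≥30 reads in all replicates and a CV ≤0.5.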
# UniProt P04483, sequence (P04483 whole entry): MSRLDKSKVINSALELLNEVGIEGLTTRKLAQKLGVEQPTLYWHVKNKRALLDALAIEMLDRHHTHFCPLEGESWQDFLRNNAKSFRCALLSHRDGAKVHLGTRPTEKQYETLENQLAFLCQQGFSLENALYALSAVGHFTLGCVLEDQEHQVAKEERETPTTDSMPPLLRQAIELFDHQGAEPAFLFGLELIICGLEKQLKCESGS
row,Sequence,TetR repression strength
1,TCCCTTCAAGTTTAGGAGA,0.177
2,TCCCTGATAGTGACTGAGA,0.29
3,TCCCTAGGAGTGATCGAGA,0.448
4,TCCCACTTAGTCTGGGAGA,0.115
5,TCCCGTGCAGTTTCCGAGA,0.214
6,TCCCTAGTAGTTTGTGAGA,0.228
7,TCCCGCCTAGTCACTGAGA,0.682
8,TCCCCTACAGTACAGGAGA,0.0811
9,TCCCCTAGAGTCATGGAGA,0.0544
10,TCCCGTTCAGTAGGCGAGA,0.261
11,TCCCTCTTAGTTGAGGAGA,0.288
12,TCCCGACGAGTCGTTGAGA,0.157
13,TCCCTTCCAGTGGGTGAGA,0.113
14,TCCCTCGAAGTTCTTGAGA,0.407
15,TCCCACGTAGTGGTCGAGA,0.0586
16,TCCCGTCCAGTGTTGGAGA,0.316
17,TCCCACTGAGTCTTAGAGA,0.311
18,TCCCCGCCAGTTCGCGAGA,0.13
19,TCCCCAGTAGTGGGCGAGA,0.963
20,TCCCGTAAAGTGTGGGAGA,0.319
21,TCCCCGTGAGTTCGCGAGA,0.215
22,TCCCAAGCAGTTTCAGAGA,0.475
23,TCCCGTCGAGTCTCGGAGA,0.313
24,TCCCTACAAGTCATAGAGA,0.251
25,TCCCTGCTAGTGTGTGAGA,0.31
26,TCCCTTACAGTGCAGGAGA,0.113

row,Sequence,TetR repression strength
1,TCCCAAGGAGTCCGGGAGA,0.294
2,TCCCAGGCAGTGCACGAGA,0.212
3,TCCCATGTAGTTCCCGAGA,0.427
4,TCCCAGCCAGTATTGGAGA,0.296
5,TCCCTGGGAGTCACGGAGA,0.216
6,TCCCCAGGAGTCATCGAGA,0.397
7,TCCCGAGCAGTGGCAGAGA,0.286
8,TCCCCAGCAGTTGGGGAGA,0.304
9,TCCCACAAAGTCGGTGAGA,0.267
10,TCCCGTTGAGTGTCGGAGA,0.2
11,TCCCGCATAGTTGATGAGA,0.311
12,TCCCTTACAGTTGCTGAGA,0.244
13,TCCCCATGAGTTAGAGAGA,0.196
14,TCCCGGCCAGTTGTCGAGA,0.231
15,TCCCATGTAGTCCGTGAGA,0.163
16,TCCCTAAAAGTTAAAGAGA,0.261
17,TCCCGCTTAGTCAGCGAGA,0.188
18,TCCCAGTAAGTGAGAGAGA,0.353
19,TCCCGCAAAGTCGCAGAGA,0.0535
20,TCCCCCCAAGTCGGGGAGA,0.0506
21,TCCCACATAGTTAATGAGA,0.175
22,TCCCCATTAGTATATGAGA,0.301
23,TCCCGCCCAGTATCCGAGA,0.289
24,TCCCAAGGAGTGTCCGAGA,0.575
25,TCCCGAGTAGTGAAAGAGA,0.337
26,TCCCTCCCAGTACTTGAGA,0.306

row,Sequence,TetR repression strength
1,TCCCACAGAGTGGATGAGA,0.0957
2,TCCCTTGAAGTGGCGGAGA,0.14
3,TCCCAACAAGTGCCGGAGA,0.234
4,TCCCGGCGAGTGGTTGAGA,0.34
5,TCCCTGACAGTACATGAGA,0.371
6,TCCCGCTGAGTGACGGAGA,0.0764
7,TCCCAGATAGTGGCCGAGA,0.00691
8,TCCCGGGGAGTAACAGAGA,0.263
9,TCCCGGAAAGTGTGGGAGA,0.0601
10,TCCCGTTGAGTTAGGGAGA,0.218
11,TCCCAGGGAGTAAGTGAGA,0.126
12,TCCCTAAGAGTCGTTGAGA,0.393
13,TCCCTTATAGTACAGGAGA,0.103
14,TCCCTGGCAGTGTCAGAGA,0.272
15,TCCCCCGAAGTGGCCGAGA,0.112
16,TCCCCTAGAGTGGTGGAGA,0.247
17,TCCCTCATAGTATTGGAGA,0.22
18,TCCCCCGTAGTGAACGAGA,0.242
19,TCCCTGTTAGTCTGGGAGA,0.218
20,TCCCTGTCAGTGAAAGAGA,0.632
21,TCCCGCTAAGTCGGCGAGA,0.245
22,TCCCGGGAAGTTTAGGAGA,0.0456
23,TCCCGCGCAGTTTGGGAGA,0.251
24,TCCCCATGAGTGGGGGAGA,0.098
25,TCCCGTTAAGTGATAGAGA,0.406
26,TCCCCCCGAGTGGTGGAGA,0.203

row,Sequence,TetR repression strength
1,TCCCTCGGAGTCACCGAGA,0.331
2,TCCCTTGAAGTCGGAGAGA,0.0724
3,TCCCGTGAAGTGAAAGAGA,0.104
4,TCCCAGGAAGTGGGAGAGA,0.109
5,TCCCATGGAGTTGGGGAGA,0.16
6,TCCCTTCTAGTAGGTGAGA,0.299
7,TCCCGTGTAGTGTTTGAGA,0.18
8,TCCCTCGGAGTGCGAGAGA,0.315
9,TCCCTGCCAGTGTTAGAGA,0.429
10,TCCCTTAAAGTTGGTGAGA,0.429
11,TCCCGCGCAGTGCGGGAGA,0.578
12,TCCCAGAAAGTACATGAGA,0.351
13,TCCCGGTTAGTGCCAGAGA,0.061
14,TCCCGTCAAGTAGGGGAGA,0.0741
15,TCCCGCCAAGTACGCGAGA,0.275
16,TCCCGAATAGTTTTCGAGA,0.415
17,TCCCAGTGAGTGTCTGAGA,0.231
18,TCCCTGTTAGTCTTGGAGA,0.481
19,TCCCGCCTAGTGCAAGAGA,0.393
20,TCCCTAATAGTGCCCGAGA,0.138
21,TCCCATGGAGTTTGGGAGA,0.201
22,TCCCTGTCAGTAGCGGAGA,0.0338
23,TCCCATGCAGTCCTAGAGA,0.417
24,TCCCTCAAAGTAGCCGAGA,0.231
25,TCCCTGGCAGTGAATGAGA,0.184
26,TCCCGGAGAGTGCGTGAGA,0.177

row,Sequence,TetR repression strength
1,TCCCTTTCAGTTTCTGAGA,0.1
2,TCCCTTTTAGTTTGGGAGA,0.451
3,TCCCTAGTAGTTCTCGAGA,0.282
4,TCCCATGTAGTTTGAGAGA,0.222
5,TCCCGTCCAGTTGACGAGA,0.00351
6,TCCCTACAAGTTTAGGAGA,0.0691
7,TCCCGGAAAGTCTGGGAGA,0.153
8,TCCCTGAGAGTGAGAGAGA,0.123
9,TCCCGGGAAGTCAGGGAGA,0.367
10,TCCCAATGAGTCTTAGAGA,0.211
11,TCCCCGCCAGTGCGAGAGA,0.0262
12,TCCCGCTAAGTTGACGAGA,0.425
13,TCCCGCTAAGTGGACGAGA,0.209
14,TCCCTATTAGTAGATGAGA,0.247
15,TCCCAGAGAGTTTGCGAGA,0.2
16,TCCCAGGGAGTCCGTGAGA,0.15
17,TCCCTCGTAGTTTTGGAGA,0.238
18,TCCCTGAAAGTGAAGGAGA,0.331
19,TCCCGCAGAGTCACAGAGA,0.277
20,TCCCGAGCAGTACAGGAGA,0.0626
21,TCCCCGAAAGTTTTAGAGA,0.262
22,TCCCGGACAGTCGAAGAGA,0.0697
23,TCCCAAACAGTCAACGAGA,0.272
24,TCCCCTTCAGTAGGGGAGA,0.372
25,TCCCGAGGAGTTCGGGAGA,0.116
26,TCCCGCGCAGTGGCCGAGA,0.202
